# Test results published in PubChem BioAssay AID1508642 (National Center for Advancing Translational Sciences (NCATS), 2021).
# About 200 (0.47%) of roughly 43,000 compounds were called active. Another 12% or so got no clear call; they are omitted. Calls come from the whole dose curve; as a rule, active = well fitted cell-killing curve with a large enough effect; inconclusive = small, poorly fitted or top-dose-only effect, or effect the other way; inactive = flat fitted curve, though single readings scatter. This is one part of the list.
# Test: Cell viability qHTS assay in S16 Pmp22-F2sN cells; note: nearly all actives have a fitted effect of over 65% in size
# Details: S16 Pmp22-F2sN Schwann cells (luciferase reporters placed in the Pmp22 gene) viability, CellTiter-Glo, 24 h; series mostly up to 57.5 µM; activity change, negative = cytotoxicity: at the top concentration
# How it was run: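 Seed 500-1,000 S16 Pmp22-F2sN cells per well in phenol-red-free DMEM with 10% heat-inactivated FBS; pin-add 23 nL compound; incubate 24 h at 37C; add CellTiter-Glo, wait 15 min protected from light; read luminescence.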
# % is set by controls: 0 for no effect and ±100 for the full control effect.
row,Compound,"activity change, negative = cytotoxicity"
1,CCN(CC)CCNC(=O)C(=O)NCC(c1cccnc1)N1CCN(c2ccccc2)CC1 (centres undefined),inactive: -8.82%
2,O=C(Nc1cccc(Cl)c1)c1cc(-c2ccc3c(c2)OCCO3)on1,inactive: -2.48%
3,Cc1cccc(C(=O)Nc2cccc(OCc3cc(=O)n4cccc(C)c4n3)c2)c1,inactive: 1.25%
4,Cc1cccc(NC(=O)CSc2nnc3[nH]c(=O)cc(C)n23)c1C,inactive: -0.199%
5,CCOC(=O)C1=C(CS(=O)(=O)c2ccc(C(C)(C)C)cc2)NC(=O)NC1c1cccc(OC)c1 (centres undefined),inactive: 1.33%
6,O=C(CSCc1ccc(F)cc1)N1CCc2c([nH]c3ccccc23)C1c1ccc(F)cc1 (centres undefined),inactive: -7.68%
7,O=C(CCn1c(=O)c2cccn2c2cccnc21)Nc1ccccc1Br,inactive: 18.6%
8,COc1ccc(N2CCN(C(=O)c3cnc(SC)nc3C)CC2)cc1,inactive: 15.7%
9,COc1ccc(-c2cc3c(=O)n(CC(=O)Nc4ccc(Br)c(C)c4)ccn3n2)cc1OC,inactive: -3.98%
10,CCOc1ccccc1N(C)C(=O)c1cc(S(=O)(=O)NCCc2ccc(Cl)cc2)ccc1F,inactive: -29.4%
11,CCOc1ccc(NC(=O)c2ccc3c(c2)nnn3C2CCCC2)cc1,inactive: -30.2%
12,CC(C)(C)c1ccc(C(=O)N2CCC(c3noc(-c4ccc(S(=O)(=O)N5CCCC5)cc4)n3)CC2)cc1,inactive: -23.4%
13,Cc1ccccc1CNC(=O)CCc1cn(Cc2ccccc2C)c2ccccc12,inactive: 0.654%
14,Cc1nn(S(=O)(=O)c2ccc(F)cc2)c(C)c1S(=O)(=O)N1CCCCC1,inactive: 3.82%
15,Cc1c(C(=O)Nc2cccc(C(F)(F)F)c2)oc2ccc(S(=O)(=O)N3CCC4(CC3)OCCO4)cc12,inactive: -12.3%
16,COc1ccc(NC(=O)CSc2c3c(nc4ccccc24)CCC3)cc1Cl,inactive: 3.9%
17,Cc1ccc2c(c1)N(C(=O)CCC(=O)Nc1ccc(F)cc1F)CC(C)O2 (centres undefined),inactive: 3.21%
18,CCOC(=O)c1c(C)[nH]c(C)c1S(=O)(=O)N1CCC(C(=O)NCc2cccc(C)c2)CC1,inactive: -25.4%
19,O=C(Nc1ccc(-c2nc3ccccc3s2)c(O)c1)c1ccc(Br)cc1,inactive: 0.458%
20,CCc1ccccc1NC(=O)CSc1nc(C)c(C(=O)Nc2ccccc2)c(-c2ccc(Cl)cc2)c1C#N,inactive: -24.4%
21,O=C(NCCc1ccc(Cl)cc1)C(=O)NCC(c1ccc2c(c1)OCO2)N1CCOCC1 (centres undefined),inactive: -15.2%
22,O=C(Nc1nc2ccc(F)cc2s1)c1nc(SCc2ccccc2F)ncc1Cl,inactive: 0.316%
23,O=C(CN1C(=O)COc2ccc(S(=O)(=O)N3CCOCC3)cc21)Nc1ccc(F)c(Cl)c1,inactive: 6.52%
24,COc1cc(OC)c(N(C)C(=O)c2cn(C)c(=O)c3cc(OC)c(OC)cc23)cc1Cl,inactive: -2.16%
25,O=C(Nc1nc2c(F)cc(F)cc2s1)c1ccc2c(c1)OCCO2,inactive: -3.33%

row,Compound,"activity change, negative = cytotoxicity"
1,Cc1cc(S(=O)(=O)Nc2cc3c(cc2Cl)n(C)c(=O)c(=O)n3C)ccc1F,inactive: -9.85%
2,Cn1c(=O)c2cc(C(=O)N3CCN(c4cccc(C(F)(F)F)c4)CC3)sc2c2ccccc21,inactive: 3.98%
3,O=C(Nc1cc(C(F)(F)F)ccc1Cl)c1cc(-c2cccs2)nc2ccccc12,inactive: 8.59%
4,Cc1cc(C)c(S(=O)(=O)NCCc2sc(-c3cccnc3)nc2C)c(C)c1,inactive: 3.91%
5,Cc1ccsc1CN(Cc1ccco1)C(=O)c1ccc(Cl)cc1,inactive: -9.04%
6,CCOC(=O)c1cc(-c2ccc(OC)cc2)n(CCC(=O)NCc2ccccc2OC)c1C,inactive: -4.93%
7,Cc1ccc(C)c(N2CCN(S(=O)(=O)c3ccc(-c4cc(C(F)(F)F)on4)s3)CC2)c1,inactive: -8.37%
8,Cc1c(C(=O)Nc2ccc(F)cc2F)oc2ccc3c(c12)C(=O)CC(C)(C)O3,inactive: 0.207%
9,COc1ccc(CCNC(=O)c2cnc3ccc(C)cn3c2=O)cc1OC,inactive: -0.78%
10,Cn1ncc2c(NCc3ccc(Cl)cc3)ncnc21,inactive: -3.54%
11,COCCCNC(=O)c1cc(-c2ccc(OC)cc2)nc2n[nH]c(-c3ccc(Cl)cc3)c12,inactive: -0.353%
12,COc1cccc(CNC(=O)c2sc3nc4n(c(=O)c3c2C)CCC4)c1,inactive: -6.95%
13,Cc1ccc(CNC(=O)c2c(O)nc3ccccn3c2=O)cc1,inactive: 1.33%
14,Cc1ccc(Cn2c(=O)n(CC3CCC(C(=O)N4CCC(C)CC4)CC3)c(=O)c3sccc32)cc1 (centres undefined),inactive: 0.75%
15,Cc1ccc(N(Cc2cccs2)C(=O)Nc2cccc(Cl)c2)cc1,inactive: 5.99%
16,Cc1c(Cl)cccc1NC(=O)NCc1c(-n2cccc2)sc2c1CCCC2,inactive: -1.67%
17,Cc1oc2c(c1C(=O)Nc1ccccc1Br)C1=NCCN1C=N2,inactive: 21.4%
18,CCOc1ccccc1NC(=O)Cn1cnc2c1c(=O)n(C)c(=O)n2C,inactive: 14.3%
19,COc1ccc(N2CC3=C(C2=O)C(c2ccc(O)c(OC)c2)NC(=O)N3C)cc1 (centres undefined),inactive: 9.15%
20,CCOC(=O)c1ccccc1NC(=O)c1cc2c(s1)-c1c(C)cccc1OC2,inactive: 2.93%
21,CC(C)C(=O)Nc1nnc(S(=O)(=O)N2CCCCCC2)s1,inactive: 1.88%
22,O=C(C1COc2ccccc2O1)N1CCN(c2nc3c(F)cccc3s2)CC1 (centres undefined),inactive: 1.14%
23,COc1ccc(N(CC(=O)NCc2ccccc2Cl)S(=O)(=O)c2c(C)[nH]c(=O)[nH]c2=O)cc1,inactive: 3.98%
24,COCCNC(=O)C1CCC(CNS(=O)(=O)c2ccc3c(c2)CC(C)N3C(C)=O)CC1 (centres undefined),inactive: 4.88%
